# Assay results from the BET-seq Pho4 binding data (Le et al. 2018).
# The other results are listed elsewhere or left out. These are noisy estimates, calculated here from bound and input reads.
# Biological target: T1, Pho4 (S. cerevisiae) (UniProt P07270)
# T1 sequence: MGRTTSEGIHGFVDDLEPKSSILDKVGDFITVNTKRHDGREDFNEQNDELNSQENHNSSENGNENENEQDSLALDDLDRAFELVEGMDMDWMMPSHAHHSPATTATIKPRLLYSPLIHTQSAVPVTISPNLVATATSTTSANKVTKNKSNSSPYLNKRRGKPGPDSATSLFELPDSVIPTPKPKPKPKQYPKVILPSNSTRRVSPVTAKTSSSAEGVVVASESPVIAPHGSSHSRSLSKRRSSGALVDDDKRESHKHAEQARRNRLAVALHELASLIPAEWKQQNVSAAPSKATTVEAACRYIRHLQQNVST
# Test: relative binding free energy (BET-seq); higher = weaker binding
# Conditions: reference: library average
row,Sequence,relative binding free energy
1,GGTAACACGTGGGGTG,-0.13 kcal/mol
2,CGAGTCACGTGGAGGA,0.14 kcal/mol
3,TAGTGCACGTGATAAG,0.07 kcal/mol
4,GCGGTCACGTGTGATT,0.43 kcal/mol
5,GTACGCACGTGGTTAT,-0.08 kcal/mol
6,GGCTTCACGTGAGAGG,0.39 kcal/mol
7,GGTAACACGTGGAGAT,-0.03 kcal/mol
8,GGTGTCACGTGCGTGG,0.07 kcal/mol
9,GGGTTCACGTGTTTTT,0.45 kcal/mol
10,ATTTTCACGTGGGGCG,0.15 kcal/mol
11,CGCCGCACGTGGTGGG,-0.27 kcal/mol
12,TTCTACACGTGTGGGA,0.14 kcal/mol
13,GATTGCACGTGAAGGT,0.21 kcal/mol
14,TTGTTCACGTGACTGT,0.27 kcal/mol
15,TATGCCACGTGGGGTA,-0.29 kcal/mol
16,TGTTGCACGTGAAAGG,0.13 kcal/mol
17,GTAGTCACGTGATAGG,0.18 kcal/mol
18,AGAGTCACGTGTAGTG,0.15 kcal/mol
19,GGAATCACGTGGTTGT,0.26 kcal/mol
20,GAGGTCACGTGTGCAT,0.18 kcal/mol
21,AGTGACACGTGATTGA,0.12 kcal/mol
22,GGTGGCACGTGAAGCA,0.18 kcal/mol
23,TATCACACGTGTGTAT,0.01 kcal/mol

row,Sequence,relative binding free energy
1,AATTGCACGTGTTATT,0.03 kcal/mol
2,TCTTTCACGTGTCAGG,0.31 kcal/mol
3,TATGTCACGTGGAAAT,0.19 kcal/mol
4,TATCGCACGTGGAGGT,-0.06 kcal/mol
5,TTCAGCACGTGTGGGT,0.04 kcal/mol
6,CGTTGCACGTGTGAGG,0 kcal/mol
7,AGTGTCACGTGGCATT,0.03 kcal/mol
8,TGTAACACGTGTACGG,0.03 kcal/mol
9,AGAGGCACGTGGATGT,-0.07 kcal/mol
10,GTGCCCACGTGGAGGT,-0.19 kcal/mol
11,TTAGTCACGTGGCATG,0.14 kcal/mol
12,GAAGGCACGTGGGCCG,-0.11 kcal/mol
13,ATGAGCACGTGTGAGT,0.09 kcal/mol
14,TTGCACACGTGGTGGG,-0.08 kcal/mol
15,TTAGACACGTGGAGGC,0.12 kcal/mol
16,TGGAGCACGTGTGTGC,-0.06 kcal/mol
17,AGCGGCACGTGTAGTG,0.05 kcal/mol
18,TCGGCCACGTGTTTGT,-0.13 kcal/mol
19,GCGTTCACGTGTGGGC,0.35 kcal/mol
20,TTAGGCACGTGGAAGC,-0.03 kcal/mol
21,TGGAGCACGTGAGCGG,0.08 kcal/mol
22,GTGGCCACGTGTGCAG,-0.14 kcal/mol
23,GCTTTCACGTGTATTG,0.02 kcal/mol

row,Sequence,relative binding free energy
1,TGGCGCACGTGTAGTT,0.05 kcal/mol
2,TTGCACACGTGTGAGG,-0.09 kcal/mol
3,GTCGTCACGTGATGAG,0.19 kcal/mol
4,GCGGTCACGTGGATGG,0.11 kcal/mol
5,TTAGTCACGTGGAATC,0.18 kcal/mol
6,TGATTCACGTGCGGAT,0.53 kcal/mol
7,AAGGGCACGTGAAGTG,0.18 kcal/mol
8,ATTGTCACGTGATGAA,0.15 kcal/mol
9,CGTAGCACGTGGGTTG,-0.29 kcal/mol
10,TGGGACACGTGGGTGT,-0.06 kcal/mol
11,TGGGGCACGTGCGTCG,-0.17 kcal/mol
12,CGTTTCACGTGAGGGA,0.37 kcal/mol
13,TATGTCACGTGGATAA,0.05 kcal/mol
14,AATCGCACGTGGGTTA,-0.14 kcal/mol
15,TTGTTCACGTGTCTGG,0.41 kcal/mol
16,GGGATCACGTGACTGG,0.44 kcal/mol
17,GTGTGCACGTGCAAGT,0.07 kcal/mol
18,ACGAGCACGTGAGGGG,0.03 kcal/mol
19,ATAGTCACGTGGTTTA,0.12 kcal/mol
20,GTAATCACGTGTTGTG,0.23 kcal/mol
21,GGTATCACGTGTAAAT,0.19 kcal/mol
22,GTTAACACGTGTAAGT,0.12 kcal/mol
23,TTGACCACGTGGGGAG,-0.1 kcal/mol

row,Sequence,relative binding free energy
1,TGCTGCACGTGATTGA,0.27 kcal/mol
2,GGAATCACGTGTATGA,0.2 kcal/mol
3,ATGGGCACGTGAGATC,0.11 kcal/mol
4,GGTAGCACGTGATAGG,-0.06 kcal/mol
5,CTTATCACGTGTTTTA,0.16 kcal/mol
6,CGGGGCACGTGGTCGT,-0.03 kcal/mol
7,AAGGACACGTGGGTTG,-0.03 kcal/mol
8,TCAATCACGTGGTGTG,0.11 kcal/mol
9,CGGTGCACGTGTCGGA,0.1 kcal/mol
10,ATCTGCACGTGGAATG,0.14 kcal/mol
11,AAGTGCACGTGGTTGG,-0.05 kcal/mol
12,GACGTCACGTGTGAGG,0.28 kcal/mol
13,TGGTACACGTGGCGGC,0.1 kcal/mol
14,GGCGGCACGTGAGCGT,0.11 kcal/mol
15,GTGAACACGTGTGTGT,-0.01 kcal/mol
16,GTCTGCACGTGCTTGG,0.04 kcal/mol
17,GTTAACACGTGTTAAT,0.1 kcal/mol
18,TTAAACACGTGTCGTG,-0.06 kcal/mol
19,GGGTACACGTGGATAA,0.03 kcal/mol
20,TTGGGCACGTGTAGTG,0 kcal/mol
21,ATATGCACGTGTAGAT,0.18 kcal/mol
22,TGTATCACGTGTAAAG,-0.01 kcal/mol
23,TGTTGCACGTGAAATG,0.21 kcal/mol

row,Sequence,relative binding free energy
1,GCGATCACGTGGAGGT,0.25 kcal/mol
2,GGTCGCACGTGGGTTG,-0.11 kcal/mol
3,TGGGGCACGTGCCTGA,-0.15 kcal/mol
4,GTTTGCACGTGCGCGG,-0.17 kcal/mol
5,GATAACACGTGGGTTG,-0.12 kcal/mol
6,ATTGTCACGTGGGGCC,0.03 kcal/mol
7,GGCGTCACGTGTAAAT,0.26 kcal/mol
8,GGGAGCACGTGTGTGG,-0.06 kcal/mol
9,GAGGGCACGTGTTGAG,0.08 kcal/mol
10,TTCAACACGTGGATTT,0.16 kcal/mol
11,CGTATCACGTGGTCGG,-0.02 kcal/mol
12,CTGTTCACGTGGGATT,0.24 kcal/mol
13,TTGGGCACGTGGGTGG,-0.18 kcal/mol
14,GGGGTCACGTGATGAA,0.44 kcal/mol
15,GTGCGCACGTGGGATG,-0.08 kcal/mol
16,ATATTCACGTGGCGTG,0.03 kcal/mol
17,GAGTGCACGTGGACGG,0.09 kcal/mol
18,AGGTGCACGTGAAGTA,0.11 kcal/mol
19,TGTGACACGTGCGGGT,-0.04 kcal/mol
20,GAGGGCACGTGAAGGC,0.13 kcal/mol
21,AGAGACACGTGGTCTG,0.02 kcal/mol
22,GTTAACACGTGGTACT,0.03 kcal/mol
23,GGTTCCACGTGTTTTT,0.16 kcal/mol
